Among all 16,000 compounds or so, about 120 (0.75%) were called active. Roughly 4% stayed inconclusive and do not appear here. Calls follow the shape of the dose curve; as a rule, active = well fitted inhibition curve with a large enough effect; inconclusive = small, poorly fitted or top-dose-only effect; inactive = no such curve, though single readings can be large or run the other way. Some of the results follow.
The molecules below were run against Rap guanine nucleotide exchange factor 3 (Homo sapiens) (UniProt O95398) (assay: Validation qHTS for antagonist of cAMP-regulated guanine nucleotide exchange factor 3 (EPAC1)). Conditions: EPAC1 Rap1B-BODIPY-GDP exchange, fluorescence; series mostly up to 150 µM; activity change, negative = inhibition: at the top concentration.
Chain of UniProt O95398 (O95398 whole entry, looked up): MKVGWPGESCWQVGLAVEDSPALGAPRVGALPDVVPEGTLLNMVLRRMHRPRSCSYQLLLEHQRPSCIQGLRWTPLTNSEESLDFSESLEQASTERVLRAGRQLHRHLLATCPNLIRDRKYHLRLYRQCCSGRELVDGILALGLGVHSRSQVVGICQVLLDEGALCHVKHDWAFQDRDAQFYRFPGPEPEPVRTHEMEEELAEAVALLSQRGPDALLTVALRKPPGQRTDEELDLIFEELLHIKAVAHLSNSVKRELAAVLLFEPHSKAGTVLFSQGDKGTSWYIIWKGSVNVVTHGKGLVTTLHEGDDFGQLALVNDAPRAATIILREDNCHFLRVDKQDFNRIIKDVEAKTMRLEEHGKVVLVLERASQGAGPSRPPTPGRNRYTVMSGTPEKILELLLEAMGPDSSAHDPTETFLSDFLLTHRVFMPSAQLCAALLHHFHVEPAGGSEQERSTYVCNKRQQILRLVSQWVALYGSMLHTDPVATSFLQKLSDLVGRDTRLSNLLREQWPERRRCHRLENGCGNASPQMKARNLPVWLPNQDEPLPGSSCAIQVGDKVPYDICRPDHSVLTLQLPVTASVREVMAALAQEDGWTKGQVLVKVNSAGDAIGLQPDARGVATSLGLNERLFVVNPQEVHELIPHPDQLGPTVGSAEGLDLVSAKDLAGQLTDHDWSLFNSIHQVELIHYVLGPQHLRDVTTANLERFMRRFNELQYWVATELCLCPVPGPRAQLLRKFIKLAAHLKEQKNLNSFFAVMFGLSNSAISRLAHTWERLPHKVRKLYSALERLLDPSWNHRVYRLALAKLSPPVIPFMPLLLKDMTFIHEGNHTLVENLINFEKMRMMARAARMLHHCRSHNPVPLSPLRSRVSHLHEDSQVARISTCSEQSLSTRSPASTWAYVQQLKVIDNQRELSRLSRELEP
In short: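 Nucleotide exchange followed as fluorescence loss when BODIPY-GDP leaves Rap1B (480 nm excitation, 540 nm emission), read at 5 min intervals over 30 min. Reaction: 100 nM EPAC1, 250 nM RAP1B-BODIPY-GDP, 50 uM GDP; ATA and DMSO define normalization.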
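Also: plate controls were DMSO for no effect and ATA control for full effect; nearly all actives have a fitted effect of over 75% in size.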

Activity change, negative = inhibition, inactive:
CC(C)c1c(C(=O)NCc2ccccn2)cnn1-c1nccc(-c2ccccc2F)n1 3.43%, Cc1ccccc1-c1cnc(-c2ccncc2)nc1C1CCCN(Cc2ccccc2O)C1 (stereo not given) -14.7%, O=C(NCc1nnc2n1CCN(Cc1cc3c(cc1Cl)OCO3)CC2)c1cccc(F)c1 -10.6%, COc1cc(CNC(=O)CCCC/C=C/C(C)C)ccc1O, O=C(NCCCN1CCOCC1)c1ccc(Cl)cc1 1.17%, O=C1CC[C@@H](O)CCN1CC[C@H](Sc1ccc(Br)cc1)c1ccccc1 9.09%, COc1ccc(SC[C@H](Cc2ccccc2)N2CC[C@@H](C(C)(C)C)CCC2=O)cc1 -4.55%, OC(C#CCN1CCCC1)(c1ccccc1)c1ccccc1 5.25%, O=C(NCCCN1CCCCCC1)[C@@H](c1ccccc1)C1CCCCC1 5.37%, Cc1ccccc1-c1nc(N(C)C)c2ccccc2n1 5.83%, C=CCn1c(=O)c2c(nc(-c3ccccc3)n2C)n(C)c1=O 6.56%, CCNc1ncc2nc(-c3ccc(F)cc3)c(=O)n(C)c2n1 -3.5%, Cc1cnc(CNc2ncnc3ccc(-c4ccc(N(C)C)cc4)cc23)cn1 -3.79%, COCCn1c(=O)c(-c2ccccc2)nc2cnc(OCc3ccccc3)nc21 -11%, O=C1c2ccccc2C(=O)c2c(O)c(O)cc(O)c21 -23.1%, COC1C=CC23c4cc5c(cc4CN(CC2O)C3C1)OCO5 (stereo not given) 5.5%, CCCOC(=O)c1ccc(O)cc1, COCCn1c(=O)c(-c2cn(C)c3ccccc23)nc2cnc(Oc3cccc(Cl)c3)nc21 -1.76%, COc1cc2ccc(=O)oc2c(O)c1O, O=C(c1ccco1)N1CCC2(CC1)CN(Cc1cc(C(F)(F)F)cc(C(F)(F)F)c1)C2 -2.2%, COc1cc2c(C(=O)c3ccccc3)c3c4c(cc(OC)c(OC)c4c2cc1OC)CCN3C -2.41%, CC(CNC1CCCCC1)OC(=O)c1ccccc1 (stereo not given) 22% [at 75.8 µM], CC(C)C[C@@H](CO)N1CCN(C)CCC1=O 10.7%, O=C(O)c1cccc(-c2noc(-c3ccccc3F)n2)c1 1.57%, Nc1ccc(S(=O)(=O)Nc2nccs2)cc1, O=C1c2c(O)cccc2[C@H]([C@@H]2O[C@H](CO)[C@@H](O)[C@H](O)[C@H]2O)c2cc(CO)cc(O)c21 4.72%, Cc1ccccc1-c1nccc(-n2ccnc2)n1 22.8%, CCC(O)CNC(=O)c1cnn(-c2ncc3c(n2)-c2ccccc2CCC3)c1C1CC1 (stereo not given) 7.89%, CN[C@H]1CC[C@@H](c2ccc(Cl)c(Cl)c2)c2ccccc21, CCOC(=O)C(Cc1ccc(O)cc1)NC(C)=O (stereo not given) -0.54%, Cc1c(C(=O)NCC2CCCN(C)C2)cnn1-c1nccc(-c2ccco2)n1 (stereo not given) 16.6%, COCC(=O)Nc1cc(C(=O)N2CCSCC2)cc2nc(-c3ccccc3)n(C)c12 16.7%, CC1(C)S[C@@H]2[C@H](NC(=O)C(C(=O)O)c3ccsc3)C(=O)N2[C@H]1C(=O)O (stereo not given in full) 7.44%, CC1CC(=O)NN=C1c1ccc(NCC(C)(C)NCC(O)COc2cc(Cl)ccc2C#N)cc1 (stereo not given) 21.3%, COCCNC(=O)COc1ccc(OCCNC[C@H](O)COc2ccccc2)cc1 22.7%, CCOC(=O)/C=C/c1ccc2c(c1)S(=O)(=O)N(c1cccc(OC)c1)[C@H]2CC(=O)OCC -4.02%, COc1ccc(O)c(CN2CCC3(CCC(CNC(=O)C4CCCO4)O3)CC2)c1 (stereo not given) 18.3%, CC(C)NC(=O)N1CC[C@@]2(CCCN(C(=O)c3cccc(F)c3)C2)C1 0.159%, C[C@@H]1C[C@H]2C3C[C@H](F)C4=CC(=O)C=CC4(C)[C@@]3(F)[C@@H](O)CC2(C)[C@@]1(O)C(=O)COC(=O)C(C)(C)C (stereo not given in full) 26.3%, Cc1ccc(CNc2ncnc3sc(C(=O)N4CCC(N5CCCC(O)C5)CC4)c(C)c23)o1 (stereo not given) 4.22%, CCOC(=O)C1=C(C)NC(=S)NC1c1cccc(O)c1 (stereo not given) -4.41%, COC(=O)[C@@H]1C[C@H](NC(=O)c2ccccn2)CN1Cc1cccc2ccccc12 1.11%, N#Cc1c(N(CC(=O)O)CC(=O)O)sc(C(=O)O)c1CC(=O)O 20.4%, CC[C@H]1OC(=O)[C@H](C)[C@@H](O[C@H]2C[C@@](C)(OC)[C@@H](O)[C@H](C)O2)[C@H](C)[C@@H](O[C@@H]2O[C@H](C)C[C@H](N(C)C)[C@H]2O)[C@](C)(O)C[C@@H](C)CN(C)[C@H](C)[C@@H](O)[C@]1(C)O 17%, COCCn1c(=O)c(-c2cn(C)c3ccccc23)nc2cnc(Oc3ccc(OC)cc3)nc21 19.4%, Cc1csc(SCC(=O)NCC2Cc3cc(-c4cncnc4)ccc3O2)n1 (stereo not given) -11%, CS(=O)(=O)Nc1cccc(-c2cncnc2NCc2cccnc2)c1 4.46%, Clc1ccccc1-c1nccc(NCCN2CCOCC2)n1 4.59%, CCN(CC)CCC(=O)N1c2ccccc2Sc2ccc(Cl)cc21 5.09%, COc1ccc(-c2c(-c3ccc4c(c3)OCO4)noc2-c2ccsc2)cn1 16.7%, CCC(C)(C)N=C(NC#N)Nc1cccnc1 5.26%, COC(=O)C1CCCCN1Cc1ccc2c(c1)CN(C(=O)c1cc(C)nc3cc(F)ccc13)CCO2 (stereo not given) 7.82%, CC(C)(C)C(=O)OCOC(=O)C1N2C(=O)CC2S(=O)(=O)C1(C)C (stereo not given) -6.72%, C[C@](Cc1ccc(O)c(O)c1)(NN)C(=O)O -7.94% [at 75.8 µM], c1ccc2c(c1)CC(N1CCN(c3cccc4c3OCCO4)CC1)C2 -7.72% [at 75.8 µM], CS(=O)(=O)N1CCC2(CC1)CN(C(=O)Nc1cccc(C#N)c1)C2 25.2%, COc1ccccc1-c1nccc(NCc2cnc(C)cn2)n1 15.7%, N#CC[C@H](Cc1ccccc1)N1CCN(Cc2ccccc2)CCC1=O 9.25%, COc1ccc(-c2coc3c(OC)c(OC)cc(OC)c3c2=O)cc1 10.8%, CCCCCCOc1ccccc1C(N)=O -13.4%, COc1ccccc1C1CN(Cc2ccc(Sc3nncn3C)o2)Cc2ccccc2O1 (stereo not given) 2.97%, CN(C)c1ncnc2ccc(-c3ccccc3C(F)(F)F)cc12 -3.85%, COc1cc2c(c(OC)c1OC)-c1ccc(OC)c(=O)cc1[C@H](NC(C)=O)CC2 16.7%, CC(=O)O[C@@]1(C(C)=O)CCC2C3C=C(Cl)C4=CC(=O)C5CC5[C@@]4(C)C3CC[C@]21C (stereo not given in full) -8.67%, COc1cccc(-c2nccc(N(C)Cc3ccco3)n2)c1 -11.6%, CC(=O)Nc1c(I)c(C(=O)N[C@H]2C(O)O[C@H](CO)[C@@H](O)[C@@H]2O)c(I)c(N(C)C(C)=O)c1I (stereo not given in full) 7.62% [at 75.8 µM], NC[C@H]1O[C@H](O[C@H]2[C@H](O[C@@H]3O[C@H](CO)[C@@H](O)[C@H]3O)C(O)[C@H](N)C[C@@H]2N)[C@H](N)[C@@H](O)[C@@H]1O (stereo not given in full) 20.9% [at 75.8 µM], COc1cccc(Cn2c(=O)c(-c3cccs3)nc3cnc(OCc4ccccc4)nc32)c1 20.4%, COCCn1c(=O)c(-c2cccs2)nc2cncnc21 13.2%, NC[C@H](O)c1ccc(O)c(O)c1, CNc1nc(-c2c(C)noc2C)nc2ccccc12 19.1%, CN(C)C(=O)c1cc(CNCc2ccc(C(F)(F)F)cc2)cc(NC(=O)c2ccccn2)c1 6.89%, CN(N=O)C(=O)N[C@H]1C(O)C(O)C(CO)O[C@@H]1O (stereo not given in full) 8.22%, COC(=O)N1CCC2(CCN(Cc3cc(C(F)(F)F)cc(C(F)(F)F)c3)CC2)CC1 -20.8%, Cc1nn(-c2ccc(F)cc2)c(C)c1CNC(=O)c1ccc(-n2cc(NC(=O)c3ccoc3)cn2)cc1 -7.96%, COc1cccc(CN2CCC(c3nnc(SCC4CCCO4)n3C)CC2)c1O (stereo not given) 16.1%, CCc1cc(C(=O)NCC2Cc3cccc(-c4ccc(C(=O)OC)cn4)c3O2)no1 (stereo not given) 14.1%, CCC1CN(CCNC(=O)c2cc3ccccc3oc2=O)Cc2cc(OC)ccc2O1 (stereo not given) -2.98%, O=c1c(-c2cccs2)nc2cnc(N3CCNCC3)nc2n1C1CC1 22.8%, CC1CCC2[C@](C)(CO)C(O)CC[C@]2(C)C12CCC(CO)(CCO)O2 (stereo not given in full) 15.1%, CNCC(O)c1ccc(O)c(O)c1 (stereo not given), c1cc(CN2CCCCC2)cc(OCCCNc2nc3ccccc3s2)c1, Cc1ccccc1-c1cncnc1NCc1cccnc1 6.77%, Nc1ccn(C2OC(CO)C(O)C2O)c(=O)n1 (stereo not given), COc1ccc(OC)c2c(/C=C/c3c[nH]c4ccccc34)ccnc12 19.5%, COc1cc(N)c(NC(=O)/C=C/c2nc3cc(OC)c(OC)cc3[nH]2)cc1OC 3.17%, Cc1ccc(C(=O)NCCc2nnc3n2CCN(Cc2ccc4ccccc4c2)CC3)c(C)c1 2.14%, C=C[C@]1(C)C[C@@H](OC(=O)CSC(C)(C)CNC(=O)[C@H](N)C(C)C)[C@]2(C)[C@H](C)CC[C@]3(CCC(=O)[C@H]32)[C@@H](C)[C@@H]1O -14.5%, CC1=C(C(=O)OCc2ccc3nsnc3c2)N2C(=O)[C@@H](NC(=O)OCc3ccc4nsnc4c3)[C@H]2SC1 16.4%, COc1ccc(CN2CCOc3c(cc(-c4ccc(OC)nn4)cc3OC)C2)c(O)c1 -11.5%, CC(C)CN1CC2(CCN(C(=O)c3cnccn3)CC2)C1 7.55%, O=C(O)C1=C(CSc2nnnn2CS(=O)(=O)O)CS[C@@H]2[C@H](NC(=O)[C@H](O)c3ccccc3)C(=O)N12 17.1%, C(=C\c1nccc2ccccc12)/c1ccc(N2CCOCC2)cc1 13.7%, N#CCCn1c(=O)cnc2cnc(OCc3ccccc3)nc21 -13.6%, COc1ccc(CNc2nc(-c3cccc(C#N)c3)nc3ccccc23)c(OC)c1 -25.4%, Cc1sc2ccccc2[n+]1Cc1ccccc1 17.5%, CCOC(=O)CNS(=O)(=O)Cc1ccccc1 -6.59%, O=C(c1ccncc1)N1CCC2(CCCN(c3ccc(-c4ccccc4)cc3)C2)CC1 -12.3%, COc1ccc(Oc2ncc3nc(C)c(=O)n(CCC#N)c3n2)cc1 5.17%, CC(Oc1ccccc1)C(=O)NC1C(=O)N2C(C(=O)O)C(C)(C)S[C@@H]12 (stereo not given in full) 21%

Reference: PubChem BioAssay AID1645882 (National Center for Advancing Translational Sciences (NCATS), 2021)
